# Hit rate of the full screen: of about 410,000 compounds, about 310 (0.076%) were called active. The shares of active, inactive and inconclusive entries below differ from those in the screen. Calls come from the whole dose curve; as a rule, active = well fitted curve in the direction sought with a large enough effect; inconclusive = small, poorly fitted or top-dose-only effect; inactive = flat fitted curve, though single readings scatter. Where the call is inconclusive, the potency comes from a doubtful curve fit. Numbered stars: 1 amine (or outer) side, 2 acyl side, 3 side chain; on linkers, the order of the positions; unused ones are H or OH. Square brackets hold non-standard residues; d marks the D form. Peptide text beside a SMILES is read from it. ξ: configuration not given here. X1 = CCCCCCC[C@H](O)C[C@@H](N[*:1])[C@@H](O)C(=O)[*:2]; X3 = COc1ccc(CCCC(N[*:1])C(=O)[*:2])cc1; ξThr(3R) = C[C@@H](O)C(N)C(=O)O; NMeN = CN[C@@H](CC(N)=O)C(=O)O; X2 = C/C=C(/N[*:1])C(=O)[*:2]; Dhb = C/C=C(\N)C(=O)O; Sar = CNCC(=O)O
# Target: DNA dC->dU-editing enzyme APOBEC-3G (Homo sapiens) (UniProt Q9HC16)
# Experiment: qHTS for Inhibitors of Vif-A3G Interactions: qHTS; note: nearly all actives have a fitted effect of over 60% in size
# Settings: HeLa A3G-eYFP + Vif (tagged APOBEC3G with the HIV-1 protein that degrades it), YFP fluorescence, overnight; series mostly up to 46.1 µM
# How it was run: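 Read-out is eYFP fluorescence (Ex 488/Em 500-530) from Vif-expressing HeLa A3G-eYFP cells; more signal means A3G escaped Vif-mediated degradation. Cells plated overnight, compound pinned in, incubated overnight at 37 deg C.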
# Potency is the fitted concentration of half-maximal effect; tags give direction and shape of the fitted curve.
# Sequence of UniProt Q9HC16 (Q9HC16 whole entry, looked up): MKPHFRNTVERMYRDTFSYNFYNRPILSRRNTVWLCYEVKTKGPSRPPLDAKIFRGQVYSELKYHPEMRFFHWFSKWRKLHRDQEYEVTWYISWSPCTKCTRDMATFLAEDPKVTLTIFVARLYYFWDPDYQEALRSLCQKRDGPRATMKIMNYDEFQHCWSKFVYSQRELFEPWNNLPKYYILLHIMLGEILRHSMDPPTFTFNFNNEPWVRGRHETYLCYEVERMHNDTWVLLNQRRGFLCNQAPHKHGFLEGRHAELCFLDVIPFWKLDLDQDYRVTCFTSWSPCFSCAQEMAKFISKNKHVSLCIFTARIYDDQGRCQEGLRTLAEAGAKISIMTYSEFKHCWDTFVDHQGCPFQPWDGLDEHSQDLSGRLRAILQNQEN
row,SMILES,Potency
1,Cc1ccc2nc(/C(C#N)=C\c3ccc(N4CCOCC4)o3)[nH]c2c1,"inconclusive: 2.51 µM [inhibitor, partial curve, poor fit]"
2,Cn1cc(C(=O)N/N=C/c2ccc3c(c2)OCO3)c2ccccc21,"inconclusive: 2.82 µM [inhibitor, partial curve, poor fit]"
3,N#CCC(=O)Nc1ccc(C(=O)NCC(c2ccco2)N2CCCCC2)cc1 (configuration not stated),"inconclusive: 35.5 µM [inhibitor, single point]"
4,CC(C)(C)c1cc(CN(CCO)CCO)cc(C(C)(C)C)c1O,inactive
5,CC(=O)n1c(Cl)c(NC(=O)CCl)c2ccccc21,"inconclusive: 25.1 µM [inhibitor, single point]"
6,O=C(CCS(=O)(=O)c1ccccc1)N(CCCN1CCOCC1)c1nc2ccc(F)cc2s1,"inconclusive: 22.4 µM [inhibitor, single point]"
7,O=C(N/N=C/c1ccc(F)cc1)c1sccc1OCc1ccc(F)cc1,"inconclusive: 3.55 µM [inhibitor, full curve, poor fit]"
8,COc1cccc2c(SCC(=O)N/N=C/c3ccccc3)cc(C)nc12,"inconclusive: 3.16 µM [inhibitor, single point]"
9,CCCCNC(=O)Cn1c(SCc2cccc(Cl)c2)nc2ccncc21,inactive
10,Cc1ccc(N=C2NC(=O)/C(=C/C=C/c3ccco3)S2)cc1C,"inconclusive: 3.55 µM [inhibitor, full curve, poor fit]"
11,Nc1nn(S(=O)(=O)c2ccccc2)cc1-c1ccc([N+](=O)[O-])cc1,"inconclusive: 35.5 µM [inhibitor, single point]"
12,O=C(Nc1nc2c(s1)CN(Cc1ccccc1)CC2)c1cccc(S(=O)(=O)N2CCc3ccccc32)c1,"inconclusive: 15.8 µM [inhibitor, single point]"
13,CC(/C=C/c1ccccc1)=N\NC(=O)c1ccc2c(c1)OCCO2,"inconclusive: 15.8 µM [inhibitor, single point]"
14,Cc1ccc(CN2C(=O)CCSc3ccc(Cl)cc32)cc1,"inconclusive: 12.6 µM [inhibitor, partial curve]"
15,C/C=C1\NC(=O)[C@H](CC(N)=O)N(C)C(=O)C([C@@H](C)O)NC(=O)C(CCCc2ccc(OC)cc2)NC(=O)[C@H](C(C)C)NC(=O)/C(=C\C)NC(=O)[C@H](O)[C@@H](C[C@@H](O)CCCCCCC)NC(=O)[C@H](C)NC(=O)CN(C)C(=O)[C@H](CCC(N)=O)NC1=O (stereo partly drawn) (cyclo(A[X1][X2]V[X3][ξThr(3R)][NMeN][Dhb]Q[Sar])),"inconclusive: 14.1 µM [inhibitor, single point]"
16,NNc1ncnc2c1cnn2-c1ccccc1,"inconclusive: 28.2 µM [inhibitor, single point]"
17,COc1ccc(NC(=O)c2oc3ccc(S(=O)(=O)N4CCOCC4)cc3c2C)cc1,"inconclusive: 11.2 µM [inhibitor, partial curve, poor fit]"
18,O=C1S/C(=C/c2ccc(N3CCOCC3)o2)C(=O)N1Cc1ccc(F)cc1,"inconclusive: 3.16 µM [inhibitor, full curve, poor fit]"
19,Cc1nn(Cc2ccccc2)c(C)c1NC(=O)Cn1nc([N+](=O)[O-])c(Cl)c1C,inactive
20,Cc1ccc(S(=O)(=O)Nc2nc3n(n2)C(c2ccc(F)cc2)C=C(c2ccccc2)N3)cc1 (configuration not stated),"inconclusive: 35.5 µM [inhibitor, single point]"
21,O=C(CSc1cccc2cccnc12)N1CCCC1,"inconclusive: 6.31 µM [inhibitor, partial curve, poor fit]"

row,SMILES,Potency
1,Oc1ccc(-c2csc(Nc3ccccn3)n2)cc1O,"inconclusive: 25.1 µM [inhibitor, single point]"
2,CN1CCN(CCCNC(=O)c2ccc(/C=C3\Sc4ccccc4N(Cc4ccc(F)cc4)C3=O)cc2)CC1,"inconclusive: 35.5 µM [inhibitor, single point]"
3,CCn1c2ccccc2c2cc(NC(=O)c3ccc(Br)o3)ccc21,"inconclusive: 22.4 µM [inhibitor, single point]"
4,CCOC(=O)N1CCC(NC(=O)c2ccc3c(c2)N=C(C)c2c(C)ccc(C)c2S3)CC1,"inconclusive: 0.631 µM [inhibitor, full curve, poor fit]"
5,O=C(CCl)Nc1nc(-c2ccco2)c(-c2ccco2)s1,"inconclusive: 35.5 µM [inhibitor, single point]"
6,Cn1nnnc1SCCNCc1ccc(F)cc1,"inconclusive: 20 µM [inhibitor, single point]"
7,Cc1ccc(C2C(C#N)=C(N)Oc3cc(N)ccc32)cc1 (configuration not stated),"inconclusive: 22.4 µM [inhibitor, single point]"
8,CC(=O)Nc1cc(-c2ccc(N(C)C)cc2)cn2c(-c3ccc(F)c(Cl)c3)cnc12,"inconclusive: 25.1 µM [inhibitor, single point]"
9,CN(C)c1c2ccccc2nc2c(F)c(F)c(F)c(F)c12,"inconclusive: 35.5 µM [inhibitor, single point]"
10,COc1ccc(NC(=O)/C(C#N)=C/C=C/c2ccco2)cc1,"inconclusive: 6.31 µM [inhibitor, partial curve, poor fit]"
11,O=C1/C(=C/c2ccc3c(c2)OCO3)CCC/C1=C\c1ccc2c(c1)OCO2,"inconclusive: 22.4 µM [inhibitor, single point]"
12,Cc1nn(C)c(C)c1S(=O)(=O)N1CCCC(C(=O)N2CCN(c3ccc(Cl)cc3)CC2)C1 (configuration not stated),inactive
13,CN(C)c1ccc(/C=C/c2cnnc3ccccc23)cc1,active: 8.91 µM
14,Cc1cc(C)c(S(=O)(=O)NCC(c2cccs2)S(=O)(=O)c2ccccc2)c(C)c1 (configuration not stated),"inconclusive: 17.8 µM [inhibitor, single point]"
15,Cc1cc(/C=C2\C=Cc3ccccc32)cc(C)c1[N+](=O)[O-],inactive
16,O=C(NN=C1CCCC1)c1[nH]c2ccc(Cl)cc2c1-c1ccccc1,"inconclusive: 15.8 µM [inhibitor, single point]"
17,COc1ccccc1N1CCN(C2CCN(S(=O)(=O)c3ccc(C)cc3)CC2)CC1,inactive
18,Cn1nnnc1Sc1ncnc2scc(-c3cccc4ccccc34)c12,"inconclusive: 10 µM [inhibitor, partial curve]"
19,COc1ccccc1-c1ccc(/C=C2\C=CC(=O)O2)o1,"inconclusive: 20 µM [inhibitor, single point]"
20,CC[C@]12c3[nH]c4cc(-c5ccco5)ccc4c3CCN1C(=O)[C@@H](CC(=O)NCc1ccco1)C[C@@H]2C(=O)N1CCN(C(=O)C2CC2)CC1,inactive
21,CSc1nsc2nc(=O)c(/C=C3\C(C)=Nc4ccc(C)cc43)c(N)n12,"inconclusive: 2.82 µM [inhibitor, full curve, poor fit]"

row,SMILES,Potency
1,COc1ccc(OC)c(NC(=O)c2cnc(Nc3ccccc3OC)c3ccccc23)c1,"inconclusive: 2.82 µM [inhibitor, partial curve, poor fit]"
2,O=C(c1ccc(OCCN2CCCCC2)cc1)c1c(-c2ccc(O)cc2)sc2cc(O)ccc12,"inconclusive: 35.5 µM [inhibitor, single point]"
3,Fc1ccccc1CN1CCN(c2ncccn2)CC1,inactive
4,Cc1cc(C(F)(F)F)n(-c2nc(C(=O)O)cs2)n1,inactive
5,CC1(C)CC(=O)c2c(oc3c(Cl)cc(NS(=O)(=O)c4ccc(Cl)cc4)cc23)C1,inactive
6,NNC(=O)c1ccc([N+](=O)[O-])c(CS(=O)(=O)c2ccc(Cl)cc2)c1,"inconclusive: 5.62 µM [inhibitor, single point]"
7,CCOC(=O)c1c(NC(=O)c2ccc(S(=O)(=O)N3CCCC(C)C3)cc2)sc2c1CCN(C(C)C)C2 (configuration not stated),"inconclusive: 35.5 µM [inhibitor, single point]"
8,CCN1c2cc(C)ccc2-n2cccc2C12CCN(C(=O)Nc1cc(OC)c(OC)c(OC)c1)CC2,inactive
9,CCN(CCC(=O)O)c1ccc(/C=C/c2ccnc3ccccc23)cc1,"inconclusive: 3.16 µM [inhibitor, partial curve, poor fit]"
10,COc1ccc(Cc2c(-c3cccc(Br)c3)nc3ccc(Cl)cn23)c(C)c1,inactive
11,C[C@H](CO)N1C[C@H](C)[C@@H](CN(C)Cc2ccc(Cl)c(Cl)c2)Oc2c(NC(=O)C3CC3)cccc2C1=O,inactive
12,O=C(c1ccccc1)[C@@H]1[C@@H]2C(=O)N(c3ccc(F)cc3)C(=O)[C@@H]2C2CCCN21 (some centres not stated),"inconclusive: 28.2 µM [inhibitor, single point]"
13,CC1=CC(C)(C)N(S(=O)(=O)c2ccc(C)cc2)c2cc(C)ccc21,"inconclusive: 0.891 µM [inhibitor, full curve, poor fit]"
14,Cc1ccccc1NC(=O)CSc1nc(COc2ccccc2)nc2ccccc12,inactive
15,Cc1cccc(C(=O)NC(=S)NCc2ccccc2)c1,inactive
16,O=C(/C=C/c1ccccc1)CC(=O)c1ccccc1O,"inconclusive: 28.2 µM [inhibitor, single point]"
17,COc1ccc(OCCCC(=O)Nc2cccnc2)cc1,"inconclusive: 3.55 µM [inhibitor, single point]"
18,CCC(C)N(C(=O)COC(=O)CCc1c[nH]c2ccccc12)C1CCS(=O)(=O)C1 (configuration not stated),"inconclusive: 5.62 µM [inhibitor, single point]"
19,O=C(/C=C/c1ccc(Cl)cc1Cl)N1CCN(c2ccc([N+](=O)[O-])c(N3CCOCC3)c2)CC1,inactive
20,COc1cc(/C=C/C(=O)c2ccc(F)cc2)cc(OC)c1OC,"inconclusive: 17.8 µM [inhibitor, single point]"
